Our source for the survival values is PubChem BioAssay AID463173 (ICCB-Longwood Screening Facility, Harvard Medical School, 2010).

Among all 52,000 compounds or so, about 4,300 (8.3%) were called active. No stated cut-off is given here; in the data, active means survival mostly below about 52% (no sharp cut-off); inactive means mostly above about 56%. The list shows a part of the results.

The subject of this experiment is DeltatarO mutant. The experiment can be described thus: S. aureus survival, RN4220 and DeltatarO strains – OD600, teichoic acid synthesis inhibitors, primary screen (AID 463173). Conditions: S. aureus RN4220 wild type/DeltatarO growth, OD600, 18 h, stronger effect = lower value, screened at 18.75 µg/mL (by protocol).
As to `Cc1ccc(-c2nc(NC(=O)CSc3nc(C)nc4sc5c(c34)CCCC5)ns2)cc1`, the survival was inactive: 53%. Next, `CC1CCN(S(=O)(=O)c2ccc3c(ccn3CCC(=O)NCc3ccccc3F)c2)CC1`: active: -5%; `O=C1CCCC/C1=N\Nc1ccc(CN2CCCCC2)cc1`: inactive: 97%; `CCOc1ccc(NC(=O)c2cc(OC)nc3ccccc23)cc1`: inactive: 96%.

With `CCOc1ccc(NC(=O)c2ccc3c(c2)CCN3S(=O)(=O)CC)cc1`, the survival is inactive: 48%.

Take `O=C(Nc1cccc(C(=O)N2CCOCC2)c1)NC1CCCCC1`: the survival is inactive: 84%.

Turning to `O=C(CC1C(=O)N(c2ccccc2)C(=O)N1Cc1ccc(F)cc1)Nc1cccc(F)c1` (stereo not drawn), the survival was inactive: 68%. Turning to `CCOC(=O)Nc1ccc(C(=O)OC)cc1`, the survival is inactive: 75%. Then `COc1ccc2nc(C)cc(SCC(=O)O)c2c1`, with inactive: 68%; and `CCn1c(SCC(=O)N(C)C)nnc1-c1ccccc1`, with inactive: 91%. As for `Cc1ccc(C(=O)c2oc3ccccc3c2NC(=O)COc2ccc(C(C)C)cc2)cc1`, the survival is inactive: 73%. Take `Cc1cccc(OCc2nnc(SCC(=O)N3c4ccccc4CCc4ccccc43)o2)c1`: the survival is inactive: 99%. Consider `O=C(NCC1CCCO1)c1c[nH]c2ccccc2c1=O` (stereo not drawn), for which the survival was inactive: 84%. Then `O=C(Nc1ccc(S(=O)(=O)Nc2ncccn2)cc1)c1cc(=O)c2ccccc2o1`, with inactive: 58%. As to `CC(C)c1nn2c(=O)cc(COC(=O)c3ccc(NC(=O)C4CCCCC4)cc3)nc2s1`, the survival is inactive: 71%. Then `Cc1ccc(CSc2ncc(Cl)c(C(=O)NCc3ccccc3)n2)cc1`, with inactive: 79%. For `Cc1ccc(S(=O)(=O)N2CCCc3cc(NS(=O)(=O)c4cc(C)ccc4C)ccc32)cc1`, the survival was inactive: 91%. Then `COc1cc2cc(C(=O)Nc3ccccc3)c(N)nc2cc1OC`, with inactive: 92%. Turning to `COc1ccc(-c2cc(-c3ccccc3)nc3c2COc2ccc(F)cc2-3)cc1`, the survival was inactive: 73%.

As for `CCN(CC)C(=O)Cn1c(=O)cc(C)c2c(C)nn(-c3ccc(C)cc3)c21`, the survival is inactive: 67%. Next, `CCc1ccc(OCC2c3cc(OC)c(OC)cc3CCN2C(=O)c2ccc(S(=O)(=O)N3CCCC3)cc2)cc1` (stereo not drawn): inactive: 87%; `CCn1cc(C(=O)NCCCOC(C)C)c(=O)c2cc(S(=O)(=O)N3CCOCC3)ccc21`: inactive: 129%; `CCOC(=O)c1cnc2c(ccc3ccccc32)c1Nc1ccc(N(C)C)cc1`: active: 0%. Next, `CC1CCc2c(nc3ncnn3c2NCCc2ccccc2F)C1` (stereo not drawn): inactive: 87%. As for `CC(C)N(Cc1ccccc1)C(=O)c1nc(-c2ccc(Cl)cc2)n2c1CCCCC2`, the survival is inactive: 115%. `O=S(=O)(c1ccc(Cl)cc1)c1nnn2c1nc(NC1CCCC1)c1sccc12`: the survival was inactive: 61%. Next, `CCC1Sc2ccccc2N(CC(=O)NCc2ccc(C)cc2)C1=O` (stereo not drawn): inactive: 105%; `N#Cc1ccc(C=Nc2ccc(C(N)=O)cc2)cc1`: inactive: 75%; `Cc1cccn2c(=O)c3cc(C(=O)NCC(C)C)sc3nc12`: active: 63%.

Turning to `COc1ccc(N2CCN(C(CNS(=O)(=O)c3ccc(OC)c(C)c3)c3ccco3)CC2)cc1` (stereo not drawn), the survival was inactive: 79%. Next, `O=C(CSc1nc2c([nH]c3ccccc32)c(=O)n1-c1ccccc1)Nc1ccc2c(c1)OCO2`: inactive: 119%.

With `Nc1c(C(=O)Nc2ccccc2Br)sc2nc(-c3cccs3)ccc12`, the survival was inactive: 50%. Consider `COc1ccc(-c2nc(Cn3c(=O)cc(C)c4c(C)nn(-c5ccccc5)c43)c(C)o2)cc1OC`, for which the survival is inactive: 128%.

With `Cc1ccc(C(=O)Cn2c(-c3ccccc3)noc2=O)cc1`, the survival was inactive: 72%. Then `Cc1cc(NC(=O)N2CCC(CN3CCCCCC3)CC2)ccc1Br`, with inactive: 78%; and `COc1cccc(NC(=O)c2c(C)nn(-c3cccc(C)c3)c2-n2cccc2)c1`, with active: 8%; and `COc1cccc(CN2C(=O)CN(C3CCCCC3)C(=O)C2c2ccc(OC(C)C)c(OC)c2)c1` (stereo not drawn), with inactive: 97%.

On to `N#Cc1ccc(-c2cccnc2)n(CC(=O)N2CC(=O)Nc3ccccc32)c1=O`, for which the survival was inactive: 86%.

Take `COC(=O)c1ccc2c(=O)n(CCCCCC(=O)NCCc3ccccc3)c(=O)[nH]c2c1`: the survival was inactive: 79%. Next, `O=C(Nc1ccccc1)c1cccc(N2CCCC2=O)c1`: inactive: 86%. Next, `CCOc1ccc(-c2cc(NC(=O)c3ccccc3)c(C(=O)OC)s2)cc1`: inactive: 94%. Next, `Cc1cc(C)c(NC(=O)Cn2c(=O)oc3cc(S(=O)(=O)N4CCCCCC4)ccc32)c(C)c1`: inactive: 83%. Take `O=C(CCCOc1ccccc1)NC1CCSC1=O` (stereo not drawn): the survival is inactive: 90%. Then `Cc1ccc(-n2nc(C)c3c(C)c(CCC(=O)NC(C)c4ccccc4)c(C)nc32)cc1` (stereo not drawn), with inactive: 53%; and `Cc1ccc(Cc2nc3ccccc3nc2SCC(=O)N2CCC(C)CC2)cc1`, with inactive: 80%; and `CC(C)CNS(=O)(=O)c1ccc(S(=O)(=O)N2CCN(c3ccccc3)CC2)cc1`, with inactive: 92%. Take `Fc1ccc(CN2CCc3nc(N4CCN(c5ccccc5F)CC4)ncc3C2)c(F)c1`: the survival was inactive: 77%. Next, `Cc1ccc(CNC(=O)c2ccc(CSc3nc4ccncc4n3Cc3ccc(C)cc3)cc2)cc1`: inactive: 119%; `COc1cccc(C(=O)Nc2ccc3nc(SCC(=O)N(C)c4ccccc4)sc3c2)c1`: inactive: 72%; `CCOc1ccc(NC(=O)c2c(C)oc3nc(C)nc(N4CCCC4)c23)cc1`: inactive: 60%. Consider `O=C(NCCc1ccc(Cl)cc1)C1CCN(Cc2cc3ccccc3n2Cc2ccccc2)CC1`, for which the survival is inactive: 73%. Then `COc1ccc(CCNC(=O)CCc2cn(Cc3ccccc3Cl)c3ccccc23)c(OC)c1`, with inactive: 59%.

On to `COc1ccc(NC(=O)c2cc3c(-c4ccccc4F)nn(C)c3s2)c(OC)c1`, for which the survival was active: 44%. For `Cc1ccccc1NC(=O)Cn1cc(S(=O)(=O)c2ccccc2)c(=O)c2ccccc21`, the survival was inactive: 81%. Consider `CCC(C)NC(=O)c1cc(Sc2cccc(Cl)c2)nc2ccccc12` (stereo not drawn), for which the survival is inactive: 99%. Next, `CCCn1c2ccccc2c2cnn(CC(=O)NCCCN3CCCCC3CC)c(=O)c21` (stereo not drawn): inactive: 77%; `CCN1CCN(Cc2c(O)ccc3oc(C)c(C(=O)Nc4cccc(Cl)c4C)c23)CC1`: inactive: 94%. Next, `NC(=O)c1cc2n(n1)C(C(F)(F)F)CC(c1ccc(Cl)cc1)N2` (stereo not drawn): inactive: 83%.
